Molecular target: GB1a/2 receptors (Homo sapiens, UniProt O75899+Q9UBS5)
Experiment: SRE-luciferase accumulation assay (Gαqi/PLC) in HEK293T-Gαqi cells
Settings: GB1a/2; for Span (best-fit): Std. Error r39; for HillSlope of GABA curve (best-fit): Std. Error r38, 95% CI r44
[1] = GABA curve with 1μM peptide, one curve for all data sets
[2] = GABA curve with 10μM peptide, one curve for all data sets

Chain of GB1a/2 receptors (Q9UBS5 15-961 limits assumed): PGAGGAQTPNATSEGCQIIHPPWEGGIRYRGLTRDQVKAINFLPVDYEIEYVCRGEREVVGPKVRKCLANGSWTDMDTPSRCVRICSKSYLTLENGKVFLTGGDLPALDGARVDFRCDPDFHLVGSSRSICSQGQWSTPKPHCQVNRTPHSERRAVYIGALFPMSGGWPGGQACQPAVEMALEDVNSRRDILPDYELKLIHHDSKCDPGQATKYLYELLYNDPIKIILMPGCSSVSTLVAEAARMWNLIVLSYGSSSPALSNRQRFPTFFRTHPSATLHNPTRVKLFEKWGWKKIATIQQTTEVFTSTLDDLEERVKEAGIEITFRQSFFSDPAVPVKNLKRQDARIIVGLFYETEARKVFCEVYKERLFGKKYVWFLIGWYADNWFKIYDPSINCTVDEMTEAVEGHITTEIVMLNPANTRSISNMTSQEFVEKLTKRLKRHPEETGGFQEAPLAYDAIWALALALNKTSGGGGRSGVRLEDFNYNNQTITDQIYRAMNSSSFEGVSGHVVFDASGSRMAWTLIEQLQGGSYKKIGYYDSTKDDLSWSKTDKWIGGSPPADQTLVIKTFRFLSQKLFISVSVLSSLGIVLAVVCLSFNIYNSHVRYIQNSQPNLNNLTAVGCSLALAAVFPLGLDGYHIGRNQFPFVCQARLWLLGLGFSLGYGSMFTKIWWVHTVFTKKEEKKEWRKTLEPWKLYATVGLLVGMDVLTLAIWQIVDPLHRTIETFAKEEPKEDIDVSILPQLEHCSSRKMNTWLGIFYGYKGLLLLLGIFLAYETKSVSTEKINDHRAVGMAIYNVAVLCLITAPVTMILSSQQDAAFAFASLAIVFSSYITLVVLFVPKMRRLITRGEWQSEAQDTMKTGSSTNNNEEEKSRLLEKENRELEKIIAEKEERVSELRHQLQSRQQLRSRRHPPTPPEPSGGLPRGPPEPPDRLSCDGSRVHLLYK
Chain of GB1a/2 receptors (O75899 42-941 partner): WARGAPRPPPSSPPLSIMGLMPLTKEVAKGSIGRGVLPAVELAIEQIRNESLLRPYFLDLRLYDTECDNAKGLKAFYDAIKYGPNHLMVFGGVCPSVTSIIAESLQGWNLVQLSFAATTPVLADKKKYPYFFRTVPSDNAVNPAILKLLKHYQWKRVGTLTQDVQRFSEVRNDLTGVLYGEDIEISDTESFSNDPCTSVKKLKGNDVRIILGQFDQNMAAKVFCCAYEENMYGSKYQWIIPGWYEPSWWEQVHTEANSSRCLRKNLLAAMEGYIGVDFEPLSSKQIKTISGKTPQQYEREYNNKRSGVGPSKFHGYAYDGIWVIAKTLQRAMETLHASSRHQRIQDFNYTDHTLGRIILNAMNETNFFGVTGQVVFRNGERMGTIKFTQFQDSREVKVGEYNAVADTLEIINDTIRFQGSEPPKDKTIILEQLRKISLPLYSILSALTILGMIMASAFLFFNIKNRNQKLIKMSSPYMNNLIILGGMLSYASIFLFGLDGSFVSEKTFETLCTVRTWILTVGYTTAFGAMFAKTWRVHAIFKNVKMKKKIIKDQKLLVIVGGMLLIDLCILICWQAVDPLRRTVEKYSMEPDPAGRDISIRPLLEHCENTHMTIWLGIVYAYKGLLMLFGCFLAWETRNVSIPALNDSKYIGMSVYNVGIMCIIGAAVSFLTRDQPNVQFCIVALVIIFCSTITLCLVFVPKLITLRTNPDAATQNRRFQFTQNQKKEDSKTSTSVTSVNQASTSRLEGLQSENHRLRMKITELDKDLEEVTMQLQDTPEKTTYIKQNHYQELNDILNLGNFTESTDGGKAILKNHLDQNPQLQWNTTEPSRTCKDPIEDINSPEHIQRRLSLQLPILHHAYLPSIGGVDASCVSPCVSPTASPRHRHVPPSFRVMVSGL

Substance: Ac-DDSDVWWGGADTDYADG-NH2 [APP17]
- Span (best-fit) (GABA curve with 1μM peptide, different curve for each data set): 0.701
- Bottom (shared fit) [1]: 0.2985
- Top (shared fit) [1]: 0.9909
- Span (best-fit) (GABA curve with 10μM peptide, different curve for each data set): 0.6701
- Bottom (shared fit) [2]: 0.2985
- Top (shared fit) [2]: 0.9909
- LogEC50 of GABA (best-fit) (Log [GABA] (M), with 1μM peptide, different curve for each data set, Std. Error r37, 95% CI r43): -6.522
- LogEC50 of GABA (shared fit) (Log [GABA] (M), with 1μM peptide, one curve for all data sets): -6.483
- LogEC50 of GABA (shared fit) (Log [GABA] (M), with 10μM peptide, one curve for all data sets): -6.483
- HillSlope of GABA curve (best-fit) (with 1μM peptide, different curve for each data set): 1.208
- HillSlope of GABA curve (best-fit) (with 10μM peptide, different curve for each data set): 0.9672
- HillSlope of GABA curve (shared fit) (with 10μM peptide, one curve for all data sets): 1.133
